# Laboratory results taken from paper PMC4658161.
# By UniProt entry, the sequences of proteins in these tests, tags left out.
# UniProt Q96EP0: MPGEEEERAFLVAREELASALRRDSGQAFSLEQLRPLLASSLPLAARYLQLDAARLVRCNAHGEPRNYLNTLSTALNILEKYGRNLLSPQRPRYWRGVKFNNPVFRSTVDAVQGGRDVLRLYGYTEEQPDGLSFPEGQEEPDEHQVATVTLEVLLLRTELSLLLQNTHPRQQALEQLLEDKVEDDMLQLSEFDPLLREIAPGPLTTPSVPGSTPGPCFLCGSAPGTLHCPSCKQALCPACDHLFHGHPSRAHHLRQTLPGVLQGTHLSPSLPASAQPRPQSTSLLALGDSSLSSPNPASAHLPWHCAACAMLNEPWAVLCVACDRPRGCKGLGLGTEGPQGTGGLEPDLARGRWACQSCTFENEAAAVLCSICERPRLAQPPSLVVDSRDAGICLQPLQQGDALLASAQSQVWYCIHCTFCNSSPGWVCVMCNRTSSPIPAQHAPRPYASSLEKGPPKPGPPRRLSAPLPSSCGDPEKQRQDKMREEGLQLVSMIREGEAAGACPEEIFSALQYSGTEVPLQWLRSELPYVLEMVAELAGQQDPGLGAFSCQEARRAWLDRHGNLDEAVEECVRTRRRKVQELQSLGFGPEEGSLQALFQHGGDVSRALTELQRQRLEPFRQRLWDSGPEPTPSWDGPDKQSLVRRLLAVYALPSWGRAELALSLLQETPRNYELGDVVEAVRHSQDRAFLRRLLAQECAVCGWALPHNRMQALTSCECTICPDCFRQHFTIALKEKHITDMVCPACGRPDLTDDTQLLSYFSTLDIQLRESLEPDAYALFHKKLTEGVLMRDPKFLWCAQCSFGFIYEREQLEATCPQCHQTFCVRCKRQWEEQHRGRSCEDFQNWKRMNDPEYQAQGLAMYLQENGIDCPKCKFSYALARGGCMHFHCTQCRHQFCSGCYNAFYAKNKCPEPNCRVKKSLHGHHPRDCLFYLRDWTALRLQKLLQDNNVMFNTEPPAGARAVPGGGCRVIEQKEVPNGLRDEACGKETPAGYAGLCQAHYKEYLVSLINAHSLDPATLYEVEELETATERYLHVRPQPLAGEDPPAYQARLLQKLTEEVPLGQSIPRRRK
# These are yes or no findings as the source states them, for the method shown. In cells and extracts the contact can be indirect. Some results given as binding are weak or reduced against the parent protein; the word gives no strength. For some assays here: Tags and fused reporters may be left off the sequences shown.
# Columns and labels:
# GFP-SHARPIN^WT = target: T1, GFP-SHARPIN^WT (UniProt Q9H0F6); assay: pull-down; pull-down of GFP-SHARPIN from HEK293 cells, adherent or in suspension; RNF31 normalized to total RNF31 and pulled-down GFP-SHARPIN
# T1 sequence: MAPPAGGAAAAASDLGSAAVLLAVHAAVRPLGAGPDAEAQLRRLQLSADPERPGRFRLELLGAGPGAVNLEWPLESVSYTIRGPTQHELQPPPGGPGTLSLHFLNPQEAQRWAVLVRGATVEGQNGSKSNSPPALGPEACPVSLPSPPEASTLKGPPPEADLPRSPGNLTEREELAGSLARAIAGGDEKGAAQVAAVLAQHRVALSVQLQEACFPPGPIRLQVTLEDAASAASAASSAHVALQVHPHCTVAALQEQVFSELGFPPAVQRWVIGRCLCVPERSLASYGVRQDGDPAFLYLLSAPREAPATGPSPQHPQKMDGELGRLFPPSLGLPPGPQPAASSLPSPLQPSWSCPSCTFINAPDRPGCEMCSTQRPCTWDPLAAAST
# [1] = target: T2, endogenous ITGAL (Jurkat cells) (human (endogenous in Jurkat)) (UniProt P20701); assay: co-IP; endogenous proteins from Jurkat cells, immunoprecipitated with an ITGAL antibody (GFP antibody as negative control)
# T2 sequence: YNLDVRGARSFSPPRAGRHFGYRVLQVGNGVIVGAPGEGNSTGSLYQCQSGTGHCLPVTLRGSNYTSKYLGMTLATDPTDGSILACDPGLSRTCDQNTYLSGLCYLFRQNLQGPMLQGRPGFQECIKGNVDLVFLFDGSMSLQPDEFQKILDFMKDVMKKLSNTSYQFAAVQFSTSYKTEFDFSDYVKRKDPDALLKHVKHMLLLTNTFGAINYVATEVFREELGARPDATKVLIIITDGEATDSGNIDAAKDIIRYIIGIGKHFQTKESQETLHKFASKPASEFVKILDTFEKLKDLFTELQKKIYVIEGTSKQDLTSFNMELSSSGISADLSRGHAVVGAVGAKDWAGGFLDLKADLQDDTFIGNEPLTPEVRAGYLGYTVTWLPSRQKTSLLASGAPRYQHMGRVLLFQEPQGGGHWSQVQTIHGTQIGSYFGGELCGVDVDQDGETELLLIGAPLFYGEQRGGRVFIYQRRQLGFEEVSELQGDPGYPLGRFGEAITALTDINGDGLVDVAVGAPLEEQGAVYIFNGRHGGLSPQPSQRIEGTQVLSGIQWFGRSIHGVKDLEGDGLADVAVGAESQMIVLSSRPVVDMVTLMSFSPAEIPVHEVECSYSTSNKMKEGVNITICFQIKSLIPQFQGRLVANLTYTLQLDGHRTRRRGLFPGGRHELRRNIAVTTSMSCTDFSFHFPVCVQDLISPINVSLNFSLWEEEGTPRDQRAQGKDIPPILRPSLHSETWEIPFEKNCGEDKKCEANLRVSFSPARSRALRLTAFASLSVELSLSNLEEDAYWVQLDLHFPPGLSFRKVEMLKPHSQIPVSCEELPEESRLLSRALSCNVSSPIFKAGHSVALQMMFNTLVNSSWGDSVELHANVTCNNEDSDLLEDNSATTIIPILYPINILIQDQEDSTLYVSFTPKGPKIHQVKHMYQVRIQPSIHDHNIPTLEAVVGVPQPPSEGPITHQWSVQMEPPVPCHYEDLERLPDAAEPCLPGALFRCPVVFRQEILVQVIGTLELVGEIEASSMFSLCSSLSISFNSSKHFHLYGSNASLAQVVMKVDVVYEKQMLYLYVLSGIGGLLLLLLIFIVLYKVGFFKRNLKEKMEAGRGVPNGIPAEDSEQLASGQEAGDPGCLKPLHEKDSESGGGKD
binding (GFP-SHARPIN^WT),binding [1],Substance
binds,,RNF31 in HEK293 cells (from UniProt Q96EP0 1-1072) (enzyme)
,no binding,endogenous RNF31 (Jurkat cells) (from UniProt Q96EP0 1-1072) (enzyme)
